These results are taken from PMC4336329 (PLoS ONE, 2015).

Hit rate of the full screen: of about 310,000 compounds, about 14,000 (4.5%) showed an effect of 50% or more. The effect is printed as a negative number. The list shows a part of the results.
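Further: peak tail current of the secondary pulse compared with the same well before compound.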

Chain of human ether-à-go-go-related gene (hERG) potassium channel (Q12809 whole entry, looked up): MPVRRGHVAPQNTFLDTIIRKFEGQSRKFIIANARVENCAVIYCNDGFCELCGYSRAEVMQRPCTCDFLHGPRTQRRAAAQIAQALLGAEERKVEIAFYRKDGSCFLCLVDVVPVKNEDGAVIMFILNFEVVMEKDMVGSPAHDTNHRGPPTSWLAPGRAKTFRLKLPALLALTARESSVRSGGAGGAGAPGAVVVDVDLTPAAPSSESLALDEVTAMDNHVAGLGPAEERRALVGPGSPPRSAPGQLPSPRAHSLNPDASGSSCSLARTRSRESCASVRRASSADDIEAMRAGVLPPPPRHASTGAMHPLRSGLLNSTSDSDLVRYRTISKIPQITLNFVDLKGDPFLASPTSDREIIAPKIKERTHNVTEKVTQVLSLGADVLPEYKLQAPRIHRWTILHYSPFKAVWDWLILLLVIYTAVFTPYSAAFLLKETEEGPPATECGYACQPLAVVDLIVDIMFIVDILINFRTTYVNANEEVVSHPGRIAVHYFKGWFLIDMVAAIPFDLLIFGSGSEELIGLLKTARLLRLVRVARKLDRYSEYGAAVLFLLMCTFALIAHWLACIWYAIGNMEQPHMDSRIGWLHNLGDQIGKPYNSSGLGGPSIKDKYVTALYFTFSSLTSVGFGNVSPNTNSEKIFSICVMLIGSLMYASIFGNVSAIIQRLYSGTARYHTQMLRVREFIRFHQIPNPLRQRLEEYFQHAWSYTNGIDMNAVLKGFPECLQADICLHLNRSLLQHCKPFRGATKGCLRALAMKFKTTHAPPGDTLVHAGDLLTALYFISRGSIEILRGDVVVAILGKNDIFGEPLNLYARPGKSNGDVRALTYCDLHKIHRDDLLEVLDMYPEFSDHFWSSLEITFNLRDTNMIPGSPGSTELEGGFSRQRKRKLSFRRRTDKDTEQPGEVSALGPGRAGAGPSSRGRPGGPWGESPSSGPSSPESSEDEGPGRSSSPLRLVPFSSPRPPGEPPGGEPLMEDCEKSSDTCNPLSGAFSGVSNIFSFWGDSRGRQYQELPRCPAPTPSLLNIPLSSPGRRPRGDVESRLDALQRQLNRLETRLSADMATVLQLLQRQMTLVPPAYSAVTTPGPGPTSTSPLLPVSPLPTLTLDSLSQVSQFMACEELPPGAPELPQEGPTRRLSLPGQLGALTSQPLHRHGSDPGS

The experiment has as its target human ether-à-go-go-related gene (hERG) potassium channel (human, UniProt Q12809). The experiment can be described thus: primary screen, population patch clamp on CHO cells stably expressing hERG.
Take `CCOc1ccc(NC(=O)CN(C)C(=O)Cn2c(=O)cnc3ccccc32)cc1OCC`: the “hERG current change (%, negative = inhibition) at 10uM” value amounted to 19.7%.

On to `Cc1cc(C)n2nc(SCC(=O)N(C)c3ccccc3)nc2n1`, for which the “hERG current change (%, negative = inhibition) at 10uM” value came to 8.2%.

In the case of `Cc1cc([N+](=O)[O-])ccc1NC(=O)/C=C/c1cccs1`, the “hERG current change (%, negative = inhibition) at 10uM” value is given as -12.8%.

For the compound `CN(C)S(=O)(=O)c1ccccc1C#N`, the “hERG current change (%, negative = inhibition) at 10uM” value is recorded as -4.08%.

Take `CCc1nc2ccccc2c(=O)n1NCCc1ccccc1`: the “hERG current change (%, negative = inhibition) at 10uM” value is on record as -21.2%.

As to `CCOC(=O)CSc1nc2ccccc2c(=O)n1CC(C)C`, the “hERG current change (%, negative = inhibition) at 10uM” value is recorded as -35.3%.

As to `Cc1ccnc(NC(=O)c2ccc(S(=O)(=O)N3CCCCCC3)cc2)c1`, the “hERG current change (%, negative = inhibition) at 10uM” value amounted to 6.28%.

As to `COc1cccc(/C=N/NC(=O)C(=O)N2CCCCCC2)c1OC`, the “hERG current change (%, negative = inhibition) at 10uM” value was determined as 3.52%.

Consider `O=C(Nc1cccc(C(F)(F)F)c1)c1cc(-c2cccs2)on1`, for which the “hERG current change (%, negative = inhibition) at 10uM” value came out at 3.81%.

In the case of `CCCCN(C(=O)c1ccc(N2CCCC2=O)cc1)c1c(N)n(CCC)c(=O)[nH]c1=O`, the “hERG current change (%, negative = inhibition) at 10uM” value came to 11.6%.

For `CCc1[nH]nc2c1C(c1cccnc1)C(C#N)=C(N)O2` (stereo not drawn), the “hERG current change (%, negative = inhibition) at 10uM” value is on record as -5.55%.

As for `CCC1CCCCN1C(=O)CSc1nnc2nc(C)cc(C)n12` (stereo not drawn), the “hERG current change (%, negative = inhibition) at 10uM” value came out at 5.26%.

With `O=C(CCCSc1nc2ccccc2[nH]1)N1CCN(c2ccccc2)CC1`, the “hERG current change (%, negative = inhibition) at 10uM” value is given as -60.2%.

As for `COc1cc(C(=O)Nc2ccc(NC(=O)c3ccccc3Cl)nc2)cc(OC)c1OC`, the “hERG current change (%, negative = inhibition) at 10uM” value was 5.54%.

Consider `CN1CCC(N(C)C(=O)c2cccc(S(=O)(=O)N3CCOCC3)c2)CC1.Cl`, for which the “hERG current change (%, negative = inhibition) at 10uM” value is given as 3.25%.

Take `Cc1ccc(N(C)C(=O)c2cc(S(=O)(=O)N3CCCCC3)c[nH]2)cc1`: the “hERG current change (%, negative = inhibition) at 10uM” value is recorded as 4.34%.

As to `Cn1c(=O)n(C)c2cc([N+](=O)[O-])c(N3CCN(C(=O)c4cccc(F)c4)CC3)cc21`, the “hERG current change (%, negative = inhibition) at 10uM” value is given as -32.7%.

With `COc1ccc2cc(C(c3nnnn3C(C)(C)C)N3CCSCC3)c(=O)[nH]c2c1` (stereo not drawn), the “hERG current change (%, negative = inhibition) at 10uM” value is reported as -31.7%.

`CCN(CC)CC(=O)n1c2c(c3ccccc31)CCCC2`: the “hERG current change (%, negative = inhibition) at 10uM” value is -34.2%.

For the compound `O=C(Cc1ccc(Cl)cc1)Nc1ccc(Br)cn1`, the “hERG current change (%, negative = inhibition) at 10uM” value was -1.7%.

Take `CC(Sc1nnc(CN2CCCC2)n1Cc1ccccc1)C(=O)Nc1ccccc1` (stereo not drawn): the “hERG current change (%, negative = inhibition) at 10uM” value is recorded as -43.1%.

Regarding `CCC(=O)N1CCNC(=O)C1CC(=O)Nc1ccc(C)c(Cl)c1` (stereo not drawn), the “hERG current change (%, negative = inhibition) at 10uM” value was found to be 1.09%.

Regarding `O=C(CCC1=NS(=O)(=O)c2ccccc2N1)NC1CCCCCCC1`, the “hERG current change (%, negative = inhibition) at 10uM” value came to 2.57%.

Turning to `COc1ccc(CNC(=O)COc2cc(O)c3c(c2)OC(C)(C)CC3=O)c(OC)c1`, the “hERG current change (%, negative = inhibition) at 10uM” value was -22.8%.

Take `COC(=O)c1ccc(OCC(O)CN2CCOCC2)cc1` (stereo not drawn): the “hERG current change (%, negative = inhibition) at 10uM” value was 15%.

Turning to `S=C1NC[C@H](c2ccccc2)N1CCCCC1CCCCC1`, the “hERG current change (%, negative = inhibition) at 10uM” value was determined as 17.5%.

On to `CC(C)n1cnc2c(Nc3cccc(Cl)c3)nc(N(CCO)CCCO)nc21`, for which the “hERG current change (%, negative = inhibition) at 10uM” value is -45.7%.

Take `CCOC(=O)C1CCCN(c2ncnc3c2cnn3-c2ccc(OC)cc2)C1` (stereo not drawn): the “hERG current change (%, negative = inhibition) at 10uM” value is reported as -33.1%.

On to `COC(=O)CNC(=O)CSc1nc(N)cc(=O)[nH]1`, for which the “hERG current change (%, negative = inhibition) at 10uM” value is -4.11%.

For the compound `O=C(Cn1nc(-c2ccccc2)ccc1=O)NCc1ccc(F)cc1`, the “hERG current change (%, negative = inhibition) at 10uM” value is recorded as -17.6%.

Regarding `CC(CNS(=O)(=O)c1cc(Cl)ccc1Cl)CN(C)C` (stereo not drawn), the “hERG current change (%, negative = inhibition) at 10uM” value is 12.2%.

`C/C(CCS(=O)(=O)c1ccccc1)=N/O`: the “hERG current change (%, negative = inhibition) at 10uM” value was 8.64%.

`Cc1ccccc1N1CC(C(=O)Nc2nnc(SCc3ccccn3)s2)CC1=O` (stereo not drawn): the “hERG current change (%, negative = inhibition) at 10uM” value is 13.4%.

On to `O=C(c1ccc(F)cc1F)N1CCCC(c2nc(-c3ccc(F)cc3)no2)C1` (stereo not drawn), for which the “hERG current change (%, negative = inhibition) at 10uM” value is reported as -18.5%.

For `CCOc1ccc(-n2cc(-c3ccc(OC)c(OC)c3)[nH]c2=S)cc1`, the “hERG current change (%, negative = inhibition) at 10uM” value was found to be 13.1%.

`CN(C)C(=O)CSc1nnc(Cc2ccccc2)n1Cc1ccco1`: the “hERG current change (%, negative = inhibition) at 10uM” value is on record as -0.266%.

For `O=C(CC1SCCNC1=O)Nc1cccc(C(F)(F)F)c1` (stereo not drawn), the “hERG current change (%, negative = inhibition) at 10uM” value is recorded as -23.5%.

For `CCCNC(=O)c1cccc(Cn2cc(Br)c([N+](=O)[O-])n2)c1`, the “hERG current change (%, negative = inhibition) at 10uM” value was -20.2%.

`CCCn1c(=O)c(C(=O)NCc2ccncc2)c(O)c2ccccc21`: the “hERG current change (%, negative = inhibition) at 10uM” value is recorded as -63%.

As for `COc1ccc2oc(C(=O)N3CCN(C(c4ccccc4)c4ccccc4)CC3)c(C)c2c1`, the “hERG current change (%, negative = inhibition) at 10uM” value is -23.4%.

For the compound `CCOc1cc(/C=N/NC(=O)c2ccc(CN3CCOCC3)cc2)ccc1OCc1ccccc1`, the “hERG current change (%, negative = inhibition) at 10uM” value is recorded as -18.2%.

Take `O=C(CNC(=O)c1ccccc1)N/N=C/c1cc(Br)ccc1O`: the “hERG current change (%, negative = inhibition) at 10uM” value is -3.75%.

In the case of `S=C(NCc1ccccc1Cl)Nc1ccccc1Cl`, the “hERG current change (%, negative = inhibition) at 10uM” value is on record as -8.63%.

As to `Cc1oc2cc3oc(=O)c(CC(=O)NCC(=O)N[C@@H](C(=O)O)c4ccccc4)c(C)c3cc2c1C`, the “hERG current change (%, negative = inhibition) at 10uM” value was determined as 9.65%.

Regarding `Cc1c(Br)c([N+](=O)[O-])nn1C(C)C(=O)NCc1cccnc1` (stereo not drawn), the “hERG current change (%, negative = inhibition) at 10uM” value is on record as -14.6%.

For the compound `O=C(O)C1Nc2ccc(Br)cc2C2C=CCC12` (stereo not drawn), the “hERG current change (%, negative = inhibition) at 10uM” value amounted to 8.3%.

For `COC(=O)CCCC(=O)NC1CC(C)(C)Cc2c1cnn2-c1ccc(C)cc1` (stereo not drawn), the “hERG current change (%, negative = inhibition) at 10uM” value is on record as -24.7%.

As to `O=C(O)C(=O)O.O=S(=O)(c1ccccc1F)N1CCN(Cc2nc3ccccc3[nH]2)CC1`, the “hERG current change (%, negative = inhibition) at 10uM” value is listed as -13.2%.

For `O=[N+]([O-])c1ccc(C[n+]2cccc(O)c2)cc1.[Br-]`, the “hERG current change (%, negative = inhibition) at 10uM” value is given as -14.9%.

Turning to `CN1CCN(c2oc(Cc3cccc4ccccc34)nc2C#N)CC1`, the “hERG current change (%, negative = inhibition) at 10uM” value is -9.75%.

Take `CCC(Oc1cccc(C)c1)C(=O)Nc1ccccc1C(=O)N1CCOCC1` (stereo not drawn): the “hERG current change (%, negative = inhibition) at 10uM” value is 2.61%.

On to `CCOc1ccc(OCC)c(NC(=O)CNS(=O)(=O)c2cccs2)c1`, for which the “hERG current change (%, negative = inhibition) at 10uM” value is given as -1.5%.

In the case of `CC(=O)c1ccc(OCC(C)Oc2ccc(C#N)cc2)cc1` (stereo not drawn), the “hERG current change (%, negative = inhibition) at 10uM” value is reported as -62.8%.

Take `CCN(CC(=O)Nc1ccccc1C(F)(F)F)C(=O)CCc1nc2ccccc2c(=O)[nH]1`: the “hERG current change (%, negative = inhibition) at 10uM” value was determined as 12.5%.

Take `COc1ccc(NC(=O)/C(C#N)=C/c2ncc([N+](=O)[O-])n2C)c(OC)c1`: the “hERG current change (%, negative = inhibition) at 10uM” value turned out to be 5.21%.

Consider `O=[N+]([O-])c1ccccc1/C=N/n1c(C2CCCCC2)n[nH]c1=S`, for which the “hERG current change (%, negative = inhibition) at 10uM” value is reported as -5.59%.

Take `c1ccc(NC2=NCCN2CCC2CCCC2)cc1`: the “hERG current change (%, negative = inhibition) at 10uM” value was -24%.
